# Test results reported in paper PMC4336329 (PLoS ONE, 2015).
# Screen size: about 310,000 compounds; about 2,200 (0.71%) showed an effect of 50% or more. The effect is printed as a negative number. This is one part of the list.
# Target: human ether-à-go-go-related gene (hERG) potassium channel (human, UniProt Q12809)
# Assay: primary screen, population patch clamp on CHO cells stably expressing hERG
# Chain of human ether-à-go-go-related gene (hERG) potassium channel (Q12809 whole entry, looked up): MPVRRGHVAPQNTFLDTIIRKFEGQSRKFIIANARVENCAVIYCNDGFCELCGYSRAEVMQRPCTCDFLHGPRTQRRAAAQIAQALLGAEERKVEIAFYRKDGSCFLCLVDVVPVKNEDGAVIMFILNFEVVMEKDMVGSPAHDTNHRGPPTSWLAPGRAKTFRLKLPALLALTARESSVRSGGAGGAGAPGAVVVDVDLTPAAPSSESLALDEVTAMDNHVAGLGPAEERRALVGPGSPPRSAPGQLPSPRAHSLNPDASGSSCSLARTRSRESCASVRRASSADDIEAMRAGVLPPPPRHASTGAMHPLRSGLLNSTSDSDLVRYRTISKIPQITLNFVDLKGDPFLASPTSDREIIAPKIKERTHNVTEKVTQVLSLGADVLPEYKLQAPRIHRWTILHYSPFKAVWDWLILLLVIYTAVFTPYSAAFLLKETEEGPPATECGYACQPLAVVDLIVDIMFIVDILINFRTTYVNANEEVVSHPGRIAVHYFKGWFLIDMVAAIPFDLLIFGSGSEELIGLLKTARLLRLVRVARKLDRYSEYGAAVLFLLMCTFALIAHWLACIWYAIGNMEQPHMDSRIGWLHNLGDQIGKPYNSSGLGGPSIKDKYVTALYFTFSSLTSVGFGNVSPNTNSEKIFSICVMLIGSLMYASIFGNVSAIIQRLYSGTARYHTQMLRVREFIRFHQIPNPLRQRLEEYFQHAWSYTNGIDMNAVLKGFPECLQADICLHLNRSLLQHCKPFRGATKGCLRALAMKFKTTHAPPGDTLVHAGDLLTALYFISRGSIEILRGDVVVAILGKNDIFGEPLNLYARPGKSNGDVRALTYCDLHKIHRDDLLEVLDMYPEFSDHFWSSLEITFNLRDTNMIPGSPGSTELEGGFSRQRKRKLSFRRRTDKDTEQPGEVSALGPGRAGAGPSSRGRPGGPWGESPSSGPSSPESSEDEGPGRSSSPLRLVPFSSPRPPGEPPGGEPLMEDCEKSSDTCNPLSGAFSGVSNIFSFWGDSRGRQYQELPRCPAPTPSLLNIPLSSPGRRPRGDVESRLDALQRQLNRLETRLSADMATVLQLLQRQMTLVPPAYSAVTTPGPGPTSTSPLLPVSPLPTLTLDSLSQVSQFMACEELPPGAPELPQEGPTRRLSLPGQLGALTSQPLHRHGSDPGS
row,Compound,"hERG current change (%, negative = inhibition) at 1uM [%]"
1,COc1ccc2[nH]cc(CCNC(=O)C3CCCO3)c2c1 (stereo not shown),6.06
2,CC1=C(C(=O)Nc2ccccc2C(=O)N2CCCCC2)SCCO1,13.4
3,COCCNC(=O)c1onc(CSc2nc3ccccc3[nH]2)c1C(=O)NCCOC,-1.43
4,CCCCCCNC(=O)C(C#N)c1nc2ccccc2nc1N1CCCC1 (stereo not shown),6.57
5,COc1ccc2c(c1OC)C(=O)OC2c1c(O)n(C2CCCCC2)c(=O)[nH]c1=O (stereo not shown),-18.5
6,CC(C)c1ccc(NC(=S)NC2CCCCCC2)cc1,-0.348
7,COc1cccc(CNC(=O)C2CCN(S(=O)(=O)c3cccc4nonc34)CC2)c1,13.4
8,CCNC(=O)C(=O)NCC1CCCN1S(=O)(=O)c1cccs1 (stereo not shown),11.4
9,C/C=C/c1ccc(OCCCNC)c(OC)c1.O=C(O)C(=O)O,-10.9
10,CS(=O)(=O)N(CC(=O)Nc1ccccc1Br)Cc1ccccc1,15.7
11,CCOC(=O)c1oc2c(CN3CCN(C)CC3)c(O)ccc2c(=O)c1-c1ccccc1OC,9.55
12,COCCN(Cc1cc2cc(C)ccc2nc1Cl)C(=O)Nc1ccccc1OC,15.8
13,O=C(O)C(=O)O.O=C(c1cccc(F)c1)N1CCN(Cc2ccc3c(c2)OCO3)CC1,14.1
14,COc1ccc(C(=O)Oc2ccc(C(=S)N3CCOCC3)cc2)cc1,20
15,Cn1c(=O)c2c([nH]c(=S)n2Cc2ccc(Cl)cc2)n(C)c1=O,14.6
16,CCOc1ccc(N(CC(=O)N2CCN(c3ccccc3OC)CC2)S(=O)(=O)c2ccc(F)cc2)cc1,-0.46
17,COC(=O)C1(C)CCc2cc(OC)ccc2C1=O (stereo not shown),8.27
18,COc1ccc(OC)c(CCNC(=O)Cn2sc3nc(C)cc(C)c3c2=O)c1,14.6
19,COc1ccc(C(=O)Nc2ccc(-c3nnn(CC(=O)NCc4ccco4)n3)cc2)cc1,-3.58
20,Fc1ccc(CN2CCSCC2)cc1F,1.87
21,Cc1ccsc1C(=O)N1CC=C(c2ccccc2)CC1,7.56
22,Cc1nc(SCC(=O)NCCc2ccccc2)c2c(=O)n(C)c(=O)n(C)c2n1,12.4

row,Compound,"hERG current change (%, negative = inhibition) at 1uM [%]"
1,CC(=O)C1=C(O)C(=O)N(CCCn2ccnc2)C1c1ccc(C)cc1 (stereo not shown),5.04
2,Cc1c(/C=N/NC(=O)CNc2ccccc2)c2ccccn2c1C(=O)c1ccccc1,2.51
3,O=C1/C(=C\c2cccs2)N=C(c2cccs2)N1Nc1ccccc1,13.4
4,CC1CC(C)CN(S(=O)(=O)c2cccc3nsnc23)C1 (stereo not shown),3.04
5,O=C1Nc2ccccc2C1=Nc1ccc(Br)cc1,8.47
6,Cc1ccc(OCC(=O)N2c3ccccc3NC(=O)C2(C)C)c([N+](=O)[O-])n1,9.36
7,CCCC(=O)Nc1cc(S(=O)(=O)N(CC)CC)ccc1Cl,12
8,O=C(CCNC(=O)c1ccccc1Cl)Nc1ccncc1,14.2
9,COc1ccccc1CN1CC(C(=O)NCc2nccn2C)CCC1=O (stereo not shown),16.4
10,Cc1ccccc1-c1n[nH]c(=S)n1/N=C/c1c(C)nn(-c2ccccc2)c1C,5.29
11,COc1ccc(CC(=O)Nc2cccc(-c3ccc4nnc(C)n4n3)c2)cc1,0.298
12,Cn1c(SCC(=O)O)nnc1-c1ccc(NC(=O)c2ccc(Cl)c(Cl)c2)cc1,8.47
13,CCN(CC(=O)NCC(=O)Nc1cccc(C)c1C)Cc1ccccc1,4.42
14,COc1cc(NC(=O)COC(=O)/C=C/c2c(C)nn(C3CCS(=O)(=O)C3)c2Cl)cc(OC)c1OC (stereo not shown),12.3
15,COc1ccc(CCNC(=O)CSc2ccsc2[N+](=O)[O-])c(OC)c1,-1.65
16,Cc1ccc2c(c1)cc(C)c1nnc(SCC(=O)NCc3ccco3)n12,6.83
17,CCc1ccc2c(COC(=O)C3CSC4(C)CCC(=O)N34)cc(=O)oc2c1 (stereo not shown),-15
18,O=C(c1cn(-c2ccccc2)nc1-c1ccc(Cl)cc1)N1CCOCC1,14.5
19,CCOC(=O)C1=C(N)OC2=C(C(=O)CC(C)(C)C2)C1c1cccnc1 (stereo not shown),-19.9
20,CCc1nnc(N/N=C\c2ccc(OC(C)=O)c(OC)c2)n1N.Cl,11.1
21,Nc1nc(COC(=O)C2CC(=O)N(CCc3ccccc3)C2)nc(Nc2ccccc2)n1 (stereo not shown),-28.1
22,CC(OC(=O)c1cccs1)C(=O)Nc1nc(-c2ccccc2)cs1 (stereo not shown),15.5

row,Compound,"hERG current change (%, negative = inhibition) at 1uM [%]"
1,Cc1ccc(N2C(=O)c3ccccc3C2C(=O)c2ccc(C)c(C)c2O)cc1 (stereo not shown),11.5
2,Cc1ccc2c(c1)NC(=O)CC(c1ccccc1)=N2,-20.4
3,CN(C)c1ccc(/C=N/NC(=O)c2ccc(CN3CCOCC3)cc2)cc1Br,3.95
4,COc1cc(OC)c(/C=N/NC(=O)Cn2nc([N+](=O)[O-])cc2C)c(OC)c1,9.91
5,NC(=O)c1cc[n+](CC2=C(C(=O)[O-])N3C(=O)[C@@H](NC(=O)C(c4ccccc4)S(=O)(=O)[O-])[C@H]3SC2)cc1.[Na+] (stereo partly shown),13.2
6,O=C(NCCNc1ccc(Cl)cc1[N+](=O)[O-])c1cccnc1,-8.2
7,O=C1c2ccccc2C(=O)N1c1ccc(Cl)cn1,2.04
8,O=C(Cc1ccccc1)Nc1ccc(NC(=O)c2cccnc2)cc1,17.3
9,Cc1cc(C)c(C)c(S(=O)(=O)Nc2ccccc2C(=O)NCCCN2CCOCC2)c1C,-34.4
10,Cc1ccc(NC(=O)Cn2cnc3c(=O)n(C)c(=O)n(C)c32)c(C)c1,2.97
11,Cc1nnc(N/N=C\c2ccc(-c3cccc(C(=O)O)c3)o2)n1N.Cl,13.8
12,O=C(Nc1ccc2ccccc2c1)c1ccc(Cl)cc1Cl,11.1
13,COc1ccc(Oc2nnc(-c3ccccc3)cc2C#N)cc1,3.45
14,O=C(CN1CCN(Cc2cccc(F)c2)CC1)NCc1ccccc1,10.3
15,Cn1cc(Cl)c(C(=O)OCC(=O)Nc2ccccc2)n1,12.8
16,Cc1ccc(S(=O)(=O)N2CCN(C(C)CC(=O)O)CC2)cc1 (stereo not shown),14.4
17,Nc1c(C(=O)c2ccccc2)sc2nsc(SCCN3CCOCC3)c12,16.3
18,CC(C)CCn1c(N2CCOCC2)nc2c1c(=O)n(CC(N)=O)c(=O)n2C,16.2
19,c1ccc(N/N=C2\CCCc3ccccc32)nc1,7.04
20,O=C(Nc1ccc(OC(F)(F)F)cc1)c1ccc2c(c1)no[n+]2[O-],8.74
21,Cc1c(OC(C)C(=O)NCc2ccccn2)ccc2c3c(c(=O)oc12)CCCC3 (stereo not shown),13.4
22,CC(C)CC(c1nnnn1Cc1ccco1)N1CCN(C2CCCC2)CC1.Cl (stereo not shown),-10.4

row,Compound,"hERG current change (%, negative = inhibition) at 1uM [%]"
1,COc1cccc2c(O)cc(=O)n(C)c12,11.6
2,N#Cc1ccc(/C=N/NC(=O)c2cc(-c3cccs3)nc3ccccc23)cc1,14.4
3,Cc1ccccc1-n1c(C)cc(/C=C2\NC(=O)NC2=O)c1C,0.238
4,CCc1cc(=O)oc2cc(OCC(N)=O)c(Cl)cc12,8.81
5,CC(C)Cn1c(N)c(C(=O)NCc2cccs2)c2nc3ccccc3nc21,8.7
6,O=C(Cc1ccc(S(=O)(=O)N2CCOCC2)s1)Oc1ccc(F)cc1,9.37
7,CCC(C(=O)Nc1ncn[nH]1)(C(F)(F)F)C(F)(F)F,1.81
8,CCN(Cc1nc2ccccc2c(=O)[nH]1)C(=O)c1cc(C2CC2)nn1-c1ccccc1,7.83
9,Cc1ccc(CN2C(=O)CCC2C(=O)NCCCN2CCCC(C)C2)cc1 (stereo not shown),9.09
10,Cn1c(O)c(C(=N)COc2cccc(Cl)c2)c(=O)n(C)c1=O,0.965
11,Cc1nnc(N/N=C/c2cc([N+](=O)[O-])c(N3CCC(C)CC3)cc2N2CCC(C)CC2)n1N.Cl,5.31
12,CCN1CCN(C(CNS(=O)(=O)c2ccccc2)c2cccnc2)CC1 (stereo not shown),-3
13,CC(=O)Nc1ccc(NC(=O)C(C)Oc2ccccc2C(=O)NCc2ccccc2)cc1 (stereo not shown),-11.7
14,Nc1ccccc1C(=O)OC1CSC1,14.9
15,CCCC/C(O)=C1\C(=O)CC(C)(C)CC1=NCCCCCC(=O)O,9.51
16,Cc1cc(CNC(=O)COc2ccc([N+](=O)[O-])cc2)c2ccccc2n1,-11.5
17,CCCOC(=O)Nc1nc2ccccc2o1,14.9
18,Cc1cc(F)ccc1S(=O)(=O)Nc1ccc(C(=O)N(C)Cc2ccco2)cc1,1.17
19,O=C(c1cnn2c(C(F)(F)F)cc(-c3ccc(F)cc3)nc12)N1CCc2ccccc2C1,4.6
20,S=C(NNc1cccc(Cl)c1)NC1CCCCC1,5.2
21,CCOC(=O)Cn1cnc2scc(-c3ccc(C)cc3)c2c1=O,13.5
22,COC(=O)COc1ccc(S(=O)(=O)N2CCc3ccccc3C2)cc1,1.48
